Values marked as one replicate rest on one cluster of the flow cell; about a third of the high ones do not repeat.
Tested on: ATP
Assay: switch fluorescence ratio, 500 uM ATP over buffer (Cy3 cluster intensity, sum of 5 cycles each) (fold (ratio)); higher = stronger signal-on switching upon ATP binding; sequences stand for … in TCGTCGGCAGCGTCAGATGTGTATAAGAGACAGTTTTTTTTTTTTTTTTTTTTTTTTT…TC
Settings: aptamer strand: ATP DNA aptamer (quencher-CACCTGGGGGAGTATTGCGGAGGAAGG + anchor), 100 nM annealed; ATP concentration: 500 uM; one replicate
How it was run: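 Imaging in selection buffer was followed by imaging after 15 min with 500 uM ATP at 22 °C, for Cy3-labelled switching-strand clusters annealed to 100 nM quencher-labelled ATP aptamer on a modified Illumina MiSeq flow-cell. Five of these buffer/ATP cycles ran, separated by NaOH stripping and re-annealing. The fluorescence ratio per cluster is summed target-cycle over summed buffer-cycle Cy3 intensity, averaged per switch-domain sequence; clusters outside 100-1000 RFU were removed.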
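Note: ATP exposure 15 min at 22 °C before imaging.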

Sequence | switch fluorescence ratio
ACTGCGTCCC | 1.08
TCATATTCG | 0.998
ATTAAGGCAT | 1.02
TGGCAGAATT | 0.993
ACGAGTCTTT | 0.983
TAGGCTACTT | 0.979
TTGCAACGGG | 1.02
CCCTGTTTAG | 0.978
CATAAATCGC | 1.13
CGGATGTGCT | 0.963
ATGTCCAGTC | 1.02
GAGTACTTT | 1
TGGCTAACGT | 1.07
TTAGTCGCGT | 1.02
ACGGGCGCGG | 0.946
GGGCACTGTC | 0.951
ATAGACATGT | 0.997
TGGTTACTT | 1.02
GATTGTAGAT | 1
GGCTGTACAG | 0.932
GGGAGACGCG | 1.01
TGTCAGATGC | 0.977
CGTTCTTCAA | 1.02

Sequence | switch fluorescence ratio
GCATACCTAA | 1.01
CCACCACCGA | 1.13
TTGCGCAACA | 1.06
CTAAGATGTG | 1.01
TTAACCATTT | 0.968
GGTGTTCGGT | 1.04
GGATCACCAT | 0.982
ATGGATGAGT | 1.03
GCGTAGCGAC | 1.28
AAGGCTTGT | 1.05
TCTAAATATT | 0.979
CGAATCAAAG | 1.01
CCAGGAG | 1.18
TGCATGAGAA | 0.975
CTTTGAAAAG | 0.99
CAGGCGCCAT | 0.991
AATTAGTCTT | 0.954
CCAGTTAAAA | 1.03
ACCGTAGCTG | 1.25
ACGGTAACGG | 0.999
CGTTATTTAG | 1.02
TAGGCGGGAT | 1
ATGGGGCG | 1.03

Sequence | switch fluorescence ratio
AGTAATGGA | 0.976
ATAAAAGAGA | 0.983
AGCTCAAGAT | 0.984
CTTTATCCAG | 0.975
AGCGGTCTGT | 0.964
GGTTTGGACT | 1.05
CATTGAATTT | 1.01
GGGTATCATT | 0.955
ATGCACGAGG | 1.07
CAATGATTAT | 0.967
TCGGTAGTGT | 0.95
CGTATCTGCT | 1.05
GGATTCCCCC | 0.999
TCTAACACAG | 1.01
CGTTTCCCG | 0.966
AGCGTCGACA | 1.02
CACTAGAAAG | 1
TGCTGACTAA | 1.03
CAAGGGGG | 0.978
TAAAGTATGA | 0.996
GACCAACCTT | 1.42
CGGGGCGACG | 0.993
ATTGACCAGA | 1.08

Sequence | switch fluorescence ratio
ACAGGTTCCG | 0.989
TCTTCCTAGC | 1.92
TTAACCTGCA | 1.59
ATTTTTCCGC | 1.04
GATTATCCG | 0.963
CATGCCTTAT | 1.02
GTGTGTCATG | 0.953
CATTAGAGCT | 0.991
CACACGGGAC | 1.43
GGCTTTAATA | 0.956
AAGGTCTGCA | 0.973
TACGGCCACC | 1.42
TCATCCGGCG | 1.41
TTCGAGAGGC | 1.14
CTTGGGACAG | 0.996
CCATCTCGTA | 0.969
ACTGTGCATA | 1.5
GAACGGAAGA | 1.09
TTGTGCGGAT | 0.987
TCTTGGAAGG | 0.972
TTTGCGGTAG | 1.03
AATATATGTG | 1.02
ATTTGTTCAC | 1.02

Sequence | switch fluorescence ratio
CATCAAATGT | 0.99
TACGAACGTT | 1.17
ATTGGGCAAC | 1.07
ATAGGTGGAG | 0.966
CTATGCACCG | 1.04
TTTCGAGCGA | 1.05
GTCACCCCTG | 1.05
ATAGGTCGTC | 0.992
CGTGGATATG | 0.994
TTGCAGCTGG | 0.974
CAGGTACTCT | 1.07
GGGCCCATTT | 1.01
GAGGGTATGT | 0.992
GAGAGGGCCA | 1.02
TGACCCGTG | 1.02
TAAGCAGGC | 1.04
TTGGCACCTC | 0.948
TGACCCCAAG | 0.978
TAGTACTGGT | 0.965
GAGGTCCGTA | 0.92
TGGTCTCAGG | 1.08
TCAAGACCAA | 1.01
ACGCATGTAT | 1.03

Sequence | switch fluorescence ratio
TAAGATTTA | 1.01
GTTGGCTGTT | 1
CCAAGGTATA | 1.04
GGGGCAACTA | 0.979
GTTTACGATC | 0.966
GACTTCTCTG | 1.02
CTGCATCTTA | 1.05
GCACTATGCT | 1.04
TTATGAATGT | 0.956
TACTATTACC | 1.24
CATCCGTACA | 4.93
AGGTTGCAAC | 0.948
ACGGACTGCC | 1.15
GTGGGTTGC | 0.975
TGGGACGT | 1.01
GGTTTGGTGA | 1.05
TGAGTCGCAG | 1.04
ATTTGGGACC | 1.05
CTTTAGTTGT | 0.977
CATTTGTGA | 1
ACCTAGGTGT | 2.34
CACGGGTGGT | 1.1
ATACCATAT | 1.06

Sequence | switch fluorescence ratio
AATAAATCAC | 0.998
TCCTCAGTGG | 1.16
ACATATATAC | 1.23
GCGTTCAGGG | 0.989
ACTCCAAATA | 3.67
AAATCACAAC | 0.984
TCGTGATTGA | 1.01
TCTCGGGGGT | 1.01
TCGTTGACTG | 1.05
GTGTTTACCT | 1.08
AAATCAGAAG | 0.989
TTGCGATCTA | 1.03
TCAGCTATGG | 1.08
GGTCTATTA | 0.994
AGGACTCAGA | 1.04
TTATTATAT | 0.984
ATGCGACGTT | 0.964
GAAAACGGCC | 1.03
AGTATAGCGT | 0.95
GTCGGGTCCT | 0.993
